Test results: the supplement of paper PMC9446081
Among all 39,000 compounds or so, about 220 (0.56%) showed activity. Some of the results follow.

System: Escherichia coli K-12 BW25113
Assay: relative growth (OD600 normalised to plate interquartile mean) (fraction); higher = less growth inhibition, active = 0.2 or less
Conditions: 50 µM; LB; incubation time: overnight (16-24 h)
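Also: static incubation at 37 °C against the wild-type strain, values averaged over two biological replicates.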

| SMILES | relative growth |
| --- | --- |
| COc1ccccc1C#Cc1cnc2c(c1)C(=O)N([C@H](C)CO)C[C@H](C)[C@@H](CN(C)C(=O)c1ccc3c(c1)OCO3)O2 | inactive: 0.962 |
| O=[N+]([O-])c1ccc(/C=C/CN(C/C=C/c2ccc([N+](=O)[O-])cc2)CCCCNS(=O)(=O)c2cccc3cnccc23)cc1 | inactive: 1.03 |
| C[C@@H]1CN([C@@H](C)CO)C(=O)c2cc(NS(=O)(=O)c3cccs3)ccc2O[C@@H](C)CCCCO[C@H]1CN(C)Cc1ccc2c(c1)OCO2 | inactive: 1 |
| CCN(CC)CCNC(=O)c1ccc(N)cc1.Cl | inactive: 1.01 |
| CC(C)CN1CCN[C@@H](C)C1=O | inactive: 0.978 |
| Cl.N=C(N)NCCCC(N)C(=O)O (stereo unspecified) | inactive: 0.867 |
| O=C(C[C@H]1C[C@H]2c3cc(NS(=O)(=O)c4ccc(F)cc4)ccc3O[C@H]2[C@@H](CO)O1)NCc1ccncc1 | inactive: 1.02 |
| C[C@@H]1CCCCO[C@H](CN(C)Cc2ccncc2)[C@@H](C)CN([C@@H](C)CO)C(=O)c2cc(NC(=O)Nc3cccc4ccccc34)ccc2O1 | inactive: 1 |
| CC(C)(C)NC[C@@H](O)CSc1nc(-c2ccc(C(N)=O)s2)cs1 | inactive: 0.996 |
| Cc1ccc(/C=N/N(C)C2=NCCN2)o1 | inactive: 0.968 |
| CNC[C@H](O)c1ccc(O)c(O)c1 | inactive: 1.02 |
| CCC(=O)Nc1ccc2c(c1)OC[C@@H](C)N(C(=O)CN1CCOCC1)C[C@@H](C)[C@H](OC)CN(C)C2=O | inactive: 1.02 |
| O=C1O[C@@H](c2ccccc2)[C@@H](c2ccccc2)N2[C@@H](c3ccc(OCCO)cc3)[C@]3(C(=O)Nc4ccc(C#CC5=CCCCC5)cc43)[C@@H](C(=O)N3CCCCCCC3)[C@H]12 | inactive: 1.02 |
| C[C@H]1CCCCO[C@H](CN(C)C(=O)Nc2ccc3c(c2)OCO3)[C@@H](C)CN([C@@H](C)CO)C(=O)c2cc(NS(=O)(=O)c3ccc(Cl)cc3)ccc2O1 | inactive: 1.03 |
| C[C@H](CO)N1C[C@H](C)[C@H](CN(C)Cc2ccc(Oc3ccccc3)cc2)Oc2cc(Br)ccc2S1(=O)=O | inactive: 1.02 |
| C[C@@H]1CN([C@@H](C)CO)C(=O)c2cc(NS(=O)(=O)c3ccccc3)ccc2O[C@@H]1CN(C)Cc1ccc(-c2ccccc2)cc1 | inactive: 1.03 |
| Cc1ccc(S(=O)(=O)Nc2ccc3c(c2)CC(=O)N([C@@H](C)CO)C[C@H](C)[C@H](CN(C)Cc2ccc(C(F)(F)F)cc2)O3)cc1 | inactive: 0.889 |
| C[C@@H]1CN([C@H](C)CO)C(=O)c2cccc(NS(=O)(=O)c3ccc(F)cc3)c2O[C@@H]1CN(C)C(=O)Nc1ccc(C(F)(F)F)cc1 | inactive: 0.976 |
| C[C@@H]1CN([C@H](C)CO)C(=O)c2cccc(NS(=O)(=O)c3ccccc3)c2O[C@H]1CN(C)CC1CC1 | inactive: 1.02 |
| CC(C)NC(=O)N(C)C[C@H]1OCc2cn(nn2)CCCC(=O)N([C@H](C)CO)C[C@H]1C | inactive: 1 |
| C[C@H](CO)N1C[C@H](C)[C@H](CN(C)Cc2ccc(Cl)c(Cl)c2)Oc2ccc(NC(=O)Nc3ccccc3)cc2C1=O | inactive: 1.03 |

| SMILES | relative growth |
| --- | --- |
| C[C@@H]1CCCCO[C@@H](CN(C)Cc2ccc(C(=O)O)cc2)[C@H](C)CN([C@H](C)CO)C(=O)c2cc(NS(=O)(=O)c3cccs3)ccc2O1 | inactive: 0.997 |
| CCS(=O)(=O)Nc1ccc2c(c1)C(=O)N(C)C[C@H](OC)[C@@H](C)CN(Cc1nccs1)[C@@H](C)CO2 | inactive: 1.02 |
| COc1ccc(CN(C)C[C@@H]2OCCCC[C@@H](C)Oc3ccc(NC(=O)C4CCCCC4)cc3C(=O)N([C@@H](C)CO)C[C@H]2C)cc1 | inactive: 1 |
| Cc1ccc(S(=O)(=O)N(C)C[C@@H]2Oc3ccc(NC(=O)Cn4cnnn4)cc3CC(=O)N([C@H](C)CO)C[C@@H]2C)cc1 | inactive: 0.99 |
| CC(=O)Nc1nonc1N1CCCC1=O | inactive: 0.997 |
| C[C@H](CO)N1C[C@H](C)[C@H](CN(C)C(=O)Cc2cccnc2)Oc2cc(C#CC3(O)CCCC3)ccc2S1(=O)=O | inactive: 1.02 |
| C[C@@H]1CCCCO[C@H](CN(C)C(=O)Nc2cccc3ccccc23)[C@@H](C)CN([C@@H](C)CO)C(=O)c2cc(NC(=O)CCCN(C)C)ccc2O1 | inactive: 0.984 |
| C[C@@H]1CN([C@@H](C)CO)C(=O)Cc2cc(NC(=O)Cn3cnnn3)ccc2O[C@H]1CN(C)C(=O)Nc1ccccc1 | inactive: 0.981 |
| COc1ccc(S(=O)(=O)Nc2ccc3c(c2)CC(=O)N([C@H](C)CO)C[C@H](C)[C@H](CN(C)Cc2ccc(Cl)c(Cl)c2)O3)cc1 | inactive: 1.01 |
| CC1(C)CC2C1CCC1(C)OC1CCC2(C)O (stereo unspecified) | inactive: 0.967 |
| CNC[C@H]1OCCCC[C@@H](C)Oc2ccc(NS(=O)(=O)c3c(C)noc3C)cc2C(=O)N([C@H](C)CO)C[C@H]1C | inactive: 0.981 |
| COc1cc(/C=C/C(=O)NCCCNC(=O)/C=C/c2cc(OC)c(OC)c(OC)c2)cc(OC)c1OC | inactive: 1 |
| C[C@@H]1CN([C@H](C)CO)C(=O)Cc2cc(NS(=O)(=O)c3cccs3)ccc2O[C@@H]1CN(C)C(=O)Nc1cccc2ccccc12 | inactive: 0.976 |
| Cc1noc(C)c1NC(=O)Nc1ccc2c(c1)CC(=O)N([C@H](C)CO)C[C@H](C)[C@H](CN(C)S(=O)(=O)c1cn(C)cn1)O2 | inactive: 0.976 |
| CO[C@H]1CN(C)C(=O)c2ccc(NC(C)=O)cc2OC[C@H](C)N(S(=O)(=O)c2cn(C)cn2)C[C@@H]1C | inactive: 0.965 |
| Cc1ccc(S(=O)(=O)N(C)C[C@H]2OCCCC[C@@H](C)Oc3ccc(NC(=O)CCC(F)(F)F)cc3C(=O)N([C@@H](C)CO)C[C@@H]2C)cc1 | inactive: 0.974 |
| C[C@@H]1CN([C@@H](C)CO)C(=O)c2cc(NS(=O)(=O)c3ccc(Cl)cc3)ccc2O[C@@H](C)CCCCO[C@@H]1CN(C)C(=O)NC1CCCCC1 | inactive: 1.01 |
| C[C@H](CO)N1C[C@H](C)[C@@H](CN(C)S(=O)(=O)c2cn(C)cn2)OCCCC[C@H](C)Oc2ccc(NS(=O)(=O)c3cn(C)cn3)cc2C1=O | inactive: 0.997 |
| C[C@@H]1CN([C@@H](C)CO)C(=O)c2cccc(NS(=O)(=O)c3cn(C)cn3)c2O[C@H]1CN(C)C(=O)NC1CCCCC1 | inactive: 0.984 |
| CC(=O)N1Cc2cc(C(=O)NCc3cc(F)cc(F)c3)nc(-c3cccc(C4=CCCC4)c3)c2[C@H]1CCO | inactive: 0.982 |
| C[C@H](CO)N1C[C@H](C)[C@@H](CN(C)S(C)(=O)=O)Oc2ccc(NC(=O)Cc3cn(C)c4ccccc34)cc2C1=O | inactive: 0.992 |

| SMILES | relative growth |
| --- | --- |
| C[C@H](CO)N1C[C@H](C)[C@@H](CN(C)Cc2ccc(C(=O)O)cc2)OCCCC[C@H](C)Oc2ccc(NC(=O)Nc3ccc(F)cc3)cc2C1=O | inactive: 0.994 |
| CC1=CCc2c(cc3oc(C)cc(=O)c3c2O)OC1 | inactive: 0.978 |
| Cc1cccc(S(=O)(=O)N2C[C@H](O)COC[C@@H]3O[C@@H](CC(=O)NCc4ccncn4)CC[C@H]32)c1 | inactive: 1 |
| CC[C@H]1OC[C@@H]2CN(C(=O)CN(C)C)CC[C@H]21 | inactive: 0.984 |
| C[C@@H]1CN([C@@H](C)CO)C(=O)Cc2cc(NC(=O)Cc3ccccc3)ccc2O[C@H]1CN(C)S(=O)(=O)c1ccccc1 | inactive: 0.996 |
| CC(=O)n1cc([C@H]2C=C(C(=O)N3CCN(Cc4ccccc4)CC3)O[C@@H](OCc3ccc(COC(=O)NCCCCCC(=O)NO)cc3)C2)c2ccccc21 | inactive: 1.01 |
| C[N+]1(C)C[C@H](O)[C@H](C(=O)O)C1 | inactive: 1.02 |
| Cc1ccc(S(=O)(=O)N2C[C@@H](O)COC[C@@H]3O[C@H](CC(=O)N[C@H]4CCN(Cc5ccccc5)C4)CC[C@H]32)cc1 | inactive: 0.989 |
| C[C@H](CO)N1C[C@H](C)[C@H](CN(C)Cc2ccc(Cl)c(Cl)c2)Oc2c(NS(=O)(=O)c3cccs3)cccc2C1=O | inactive: 0.986 |
| Cc1ccccc1S(=O)(=O)N1C[C@@H](O)COC[C@H]2O[C@@H](CC(=O)N3CCC(Cc4ccccc4)CC3)CC[C@@H]21 | inactive: 1.01 |
| C[C@@H]1CN([C@@H](C)CO)C(=O)c2cc(NS(=O)(=O)c3ccc(F)cc3)ccc2O[C@@H]1CN(C)C(=O)Nc1cccc2ccccc12 | inactive: 1.04 |
| C[C@H]1CN([C@@H](C)CO)C(=O)c2cccc(NC(=O)c3ccncc3)c2O[C@H]1CN(C)Cc1ccc2c(c1)OCO2 | inactive: 0.989 |
| Clc1nccc2ccccc12 | inactive: 1.02 |
| COc1ccc(S(=O)(=O)N(C)C[C@@H]2Oc3ccc(NC(=O)CCC(F)(F)F)cc3CC(=O)N([C@H](C)CO)C[C@H]2C)cc1 | inactive: 0.977 |
| CCS(=O)(=O)Nc1ccc2c(c1)/C(=C(/Nc1ccc(CN3CCCCC3)cc1)c1ccccc1)C(=O)N2 | inactive: 0.951 |
| COc1ccc(S(=O)(=O)N(C)C[C@@H]2Oc3c(NS(=O)(=O)c4ccccc4)cccc3C(=O)N([C@H](C)CO)C[C@H]2C)cc1 | inactive: 1.03 |
| C[C@@H]1CN([C@H](C)CO)C(=O)Cc2cc(NS(C)(=O)=O)ccc2O[C@@H]1CN(C)S(=O)(=O)c1ccccc1 | inactive: 0.986 |
| CS(=O)(=O)CCC/C(=N\OS(=O)(=O)O)S[C@@H]1O[C@H](CO)[C@@H](O)[C@H](O)[C@H]1O | inactive: 1.03 |
| Cc1noc(C)c1S(=O)(=O)N(C)C[C@H]1OCCCC[C@H](C)Oc2ccc(NC(=O)Nc3ccc(C(F)(F)F)cc3)cc2C(=O)N([C@@H](C)CO)C[C@@H]1C | inactive: 1.04 |
